Experimental data taken from US7875616B2, “Use of tyrosine kinase inhibitor to treat diabetes” (priority 2003, dated 2011).

What was measured:
[1] = tested on: isolated rat islets; assay: NO- and cytokine-induced islet cell death, vital staining with propidium iodide + bisbenzimide; assay type: cell-based; conditions: 24 h; for necrotic cells, percentage of total cell number: 10 μM Compound I, mean ± SEM, n=3
Method: Following the incubation period, islets are vital stained with propidium iodide+ bisbenzimide and photographed in a fluorescence microscope. Apoptotic (white condensed or fragmented nuclei) and necrotic (red or pink non-fragmented nuclei) are counted and expressed as percentage of total cell number.

[2] = tested on: ERK; assay: DETA/NO- and cytokine-induced ERK activation in rat islets (immunoblotting); assay type: cell-based; conditions: for Phospho-ERK per total ERK: n=4; for Phospho-ERK: recalculated from Table 5
Method: Connection between c-Abl and different MAP kinases: It is searched for a connection between c-Abl and the different MAP kinases p38, JNK and ERK that might act as down steam effectors of c-Abl. […] Islets are then analyzed for phosphorylation of p38, JNK2 and ERK1/2 using phosphospecific antibodies and immunoblotting.

[3] = tested on: isolated rat islets; assay: Cytokine-induced NO production (nitrite levels); assay type: cell-based; conditions: cytokines 24 h; cell type not stated at the place
Excerpt: FIG. 1. […] Results are means± SEM for three independent observations.

[4] = tested on: islet cells; assay: Streptozotocin-induced islet cell death in vitro; assay type: cell-based; conditions: for percentage necrotic cells: 10 μM Compound I added 24 h before, mean ± SEM, n=3
Method: It is tested whether Compound I protects against the diabetogenic drug streptozotocin in vitro.

[5] = tested on: NMRI mice; assay: Streptozotocin-induced diabetes in mice, blood glucose; assay type: in vivo; conditions: Compound I 200 mg/kg gavage
Method: The animals have free access to tap water and pelleted food throughout the study. The bedding material is changed weekly. Weight and blood glucose are determined using the Pen Sensor (MediSense, Waltham, Mass., USA) prior to the experiment. […] On day 0 mice are injected with 120 or 160 mg/kg bodyweight of streptozotozin (Sigma-Aldrich Co. St. Louis, Mo., USA) in the tail vein. Streptozotocin is dissolved in 0.9% NaCl just prior to injection. Weight and blood glucose are determined on day 0, 1, 2, 3, 5, 7, 9 on blood samples collected from the tail. On day 9 the animals are sacrificed by cervical dislocation. All animal experimentation is approved by the local Animal Ethics Committee (Tierp, Sweden).

[6] = tested on: human islets; conditions: Brefeldin A 10 μM, 10 μM Salt I, 24 h

SMILES: Cc1ccc(NC(=O)c2ccc(CN3CCN(C)CC3)cc2)cc1Nc1nccc(-c2cccnc2)n1 [Compound I]
- necrotic cells, percentage of total cell number ([1]; Control (no toxic agent)): 3.2 ± 0.9%
- necrotic cells, percentage of total cell number ([1]; DETA/NO 0.5 mM): 4.9 ± 1.2 %
- cell death induced by the NO donor ([1]; DETA/NO 0.5 mM, 10 μM): clearly counteracted
- necrotic cells, percentage of total cell number ([1]; IL-1β 25 U/ml + IFN-γ 1000 U/ml + TNF-α 1000 U/ml): 32.8 ± 3.2 %
- cytokine-induced islet cell necrosis ([1]; IL-1β + IFN-γ + TNF-α, 10 μM): partially decreased
- Phospho-ERK per total ERK ([2]; Compound I alone, 10 μM 24 h pre-incubation): 174 ± 94% of control
- Phospho-ERK per total ERK ([2]; Cytokines 20 min + 10 μM Compound I 24 h pre-incubation): 1179 ± 64% of control
- Phospho-ERK ([2]; Cytokines + 10 μM Compound I): 123% of corresponding group without any Compound I addition
- counteraction of DETA/NO-induced activation of ERK ([2]; DETA/NO 2 mM 20 min, 10 μM Compound I, one range stated for p38, JNK and ERK): 25-45%
- Phospho-ERK per total ERK ([2]; DETA/NO 20 min + 10 μM Compound I 24 h pre-incubation): 482 ± 162% of control
- Phospho-ERK ([2]; DETA/NO + 10 μM Compound I): 67% of corresponding group without any Compound I addition
- cytokine-induced MAPK activation (ERK) ([2]; cytokines 20 min, 10 μM Compound I): augmented
- more nitrite released from cytokine plus Compound I exposed cells as compared to cytokines alone [3]: 35%
- protection against streptozotocin in vitro ([4]; 0.4 mM streptozotocin): highly, significant
- percentage necrotic cells ([4]; 0.4 mM streptozotocin 6 h): 7.3 ± 2.4 %
- protection against streptozotocin in vitro ([4]; 0.6 mM streptozotocin): intermediate
- percentage necrotic cells ([4]; 0.6 mM streptozotocin 6 h): 41.3 ± 6.2 %
- protection against streptozotocin in vitro ([4]; 0.75 mM streptozotocin): protects only weakly
- percentage necrotic cells ([4]; 0.75 mM streptozotocin 6 h): 75.3 ± 5.2 %
- percentage necrotic cells ([4]; Control (no streptozotocin)): 0.5 ± 0.2%
- protection against streptozotocin-induced diabetes ([5]; 120 mg/kg streptozotocin injection): protects completely
- protection against streptozotocin-induced diabetes ([5]; 160 mg/kg streptozotocin): protects partially

SMILES: CS(=O)(=O)O.Cc1ccc(NC(=O)c2ccc(CN3CCN(C)CC3)cc2)cc1Nc1nccc(-c2cccnc2)n1 [Salt I]
- effect on islet cell viability by itself ([1]; 10 μM, no toxic agent): does not affect islet cell viability
- Brefeldin-induced islet cell death (ER stress) [6]: partially counteracts
